Reference: PMC8329197, “Compounds targeting OSBPL7 increase ABCA1-dependent cholesterol efflux preserving kidney function in two models of kidney disease” (Nature Communications, 2021)

Experiments:
Col4a3 KO mice = test: Alport syndrome model: ACR, serum creatinine, BUN, body weight (also vs ramipril); settings: Col4a3 KO; ramipril animals from a prior study
OSBPL7 = system: T1, OSBPL7; test: Competition with ^3H-Cpd K UV cross-linking to FLAG-tagged OSBPL7 in HEK293 cells (immunoprecipitation, autoradiography); format: binding, human; parameters: OSBP7 percentage of inhibition / OSBP7 percentage of inhibition, average: concentration or dose not given beside the values
T1 construct: Plasmids expressing each as a full-length protein with a C-terminal FLAG tag were obtained; expressed in transfected cells; host or cells: HEK293
Protocol: Briefly, a plasmid expressing a candidate target of interest fused with a FLAG tag was transfected into HEK293 cells. After 24 h, tritiated compound K at a concentration capable of inducing ABCA1-mediated cholesterol efflux (1.0 μM) was added for 3 h, then the live cells were exposed to UV-light (ʎ = 336 nm) to query potential compound/target cross-linking in situ. Cell lysates were prepared, the expressed protein was then selectively immunoprecipitated using an anti-FLAG antibody coupled to sepharose beads, bound proteins were separated by SDS-PAGE, and two identical blots were prepared and probed by western blot and by autoradiography to detect protein expression and presence or absence of compound crosslinking, respectively. The flow chart of this screen is illustrated in Fig. 2. Figure 2d illustrates the ability of Cpd A and Cpd G to displace tritiated Cpd K from overexpressed and immunoprecipitated OSBPL7. Figure 3b illustrates the use of this assay to detect binding of tritiated Cpd K to overexpressed and immunoprecipitated variants of OSBPL7 containing point mutations in the predicted oxysterol binging pocket of OSBPL7. […]

human THP1 macrophages = test: apoAI-mediated (ABCA1) cholesterol efflux from cholesterol-loaded THP1 macrophages; format: cell-based
[1] = single experiments (3 per compound)

With `O=C(N[C@@H]1CCCC[C@H]1O)c1cnc(OCC(F)(F)F)c(-c2ccc(Cl)c(Cl)c2)c1` [Cpd G] the “Effect on BUN and serum creatinine compared with ramipril” value (Col4a3 KO mice) was “not inferior to ramipril”, the “OSBP7 percentage of inhibition, average” value (OSBPL7; average of 3) was 78% and the “OSBP7 percentage of inhibition” value (OSBPL7; [1]) was 79% and 67% and 88%. For the same molecule, the “ABCA1 percentage of induction, average” value (human THP1 macrophages; average of 3) was 99% and the “ABCA1 percentage of induction” value (human THP1 macrophages; [1]) was 88% and 96% and 114%.

Where “and” joins values, the source holds several entries; their conditions need not be identical. Identical values can stand only once.
